Assay results from paper PMC4336329 (PLoS ONE, 2015).
Hit rate of the full screen: of about 310,000 compounds, about 14,000 (4.5%) showed an effect of 50% or more. Effects have a minus sign here. The list shows a part of the results.

These compounds were tested against human ether-à-go-go-related gene (hERG) potassium channel (human, UniProt Q12809) (assay: primary screen, population patch clamp on CHO cells stably expressing hERG).
Procedure: Briefly, Chinese hamster ovary (CHO) cells stably expressing the hERG channel were dislodged from tissue culture flasks and dispensed into PPC plates. […] During the recording, background leak currents were estimated by a 100 ms step to -80 mV from an initial holding potential of -70 mV and subtracted from the subsequent current measurement. The campaign was conducted in two phases using slight differences in recording protocol. In the first phase, the initial voltage pulse used a 100 ms step to -30 mV from a holding potential of -70 mV, a 2 s conditioning step to +25 mV, and a 2 s test step to -30 mV. During the second phase of the screen, the potential during the conditioning step was raised to +45 mV. In both phases of the campaign, a secondary voltage pulse was applied using the same parameters as the second phase initial pulse. The initial and secondary pulses were applied in the absence of compound, and upon application of 1 μM and 10 μM test concentrations. […]
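Note: peak tail current of the secondary pulse compared with the same well before compound.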

Sequence of human ether-à-go-go-related gene (hERG) potassium channel (Q12809 whole entry, looked up): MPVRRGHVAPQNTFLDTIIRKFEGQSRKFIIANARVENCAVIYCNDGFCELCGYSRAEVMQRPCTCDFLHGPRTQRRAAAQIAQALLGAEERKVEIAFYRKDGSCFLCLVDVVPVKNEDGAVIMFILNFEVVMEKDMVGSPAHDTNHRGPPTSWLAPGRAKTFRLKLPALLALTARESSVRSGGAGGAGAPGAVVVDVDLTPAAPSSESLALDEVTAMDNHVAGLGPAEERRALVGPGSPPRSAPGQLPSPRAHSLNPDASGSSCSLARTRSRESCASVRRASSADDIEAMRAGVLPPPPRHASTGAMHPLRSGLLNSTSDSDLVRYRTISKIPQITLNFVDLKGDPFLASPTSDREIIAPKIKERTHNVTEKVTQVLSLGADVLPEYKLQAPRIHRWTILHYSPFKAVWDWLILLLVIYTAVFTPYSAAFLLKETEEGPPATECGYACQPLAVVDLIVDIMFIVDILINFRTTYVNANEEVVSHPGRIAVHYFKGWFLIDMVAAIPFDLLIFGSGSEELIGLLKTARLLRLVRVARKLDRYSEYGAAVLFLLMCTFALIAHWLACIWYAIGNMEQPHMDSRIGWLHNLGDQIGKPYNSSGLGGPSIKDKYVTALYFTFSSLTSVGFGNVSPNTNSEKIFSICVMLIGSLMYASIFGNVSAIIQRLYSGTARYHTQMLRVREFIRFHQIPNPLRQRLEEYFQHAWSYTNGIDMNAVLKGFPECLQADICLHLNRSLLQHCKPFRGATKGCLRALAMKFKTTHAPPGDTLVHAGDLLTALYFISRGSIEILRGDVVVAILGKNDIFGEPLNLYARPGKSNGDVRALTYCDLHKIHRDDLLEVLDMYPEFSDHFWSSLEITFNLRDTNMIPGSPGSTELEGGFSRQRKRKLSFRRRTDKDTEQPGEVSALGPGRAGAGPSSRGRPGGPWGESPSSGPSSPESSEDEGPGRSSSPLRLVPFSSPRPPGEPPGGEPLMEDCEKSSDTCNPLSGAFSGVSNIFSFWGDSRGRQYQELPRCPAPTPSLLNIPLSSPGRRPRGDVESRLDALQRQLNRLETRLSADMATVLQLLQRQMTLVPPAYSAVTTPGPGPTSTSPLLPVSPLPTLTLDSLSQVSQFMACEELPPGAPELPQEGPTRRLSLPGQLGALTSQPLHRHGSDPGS

Row | SMILES | hERG current change (%, negative = inhibition) at 10uM [%]
1 | Cc1ccc(S(=O)(=O)CCSc2nc(C)cc(C)c2C#N)cc1 | 9.37
2 | CCN(C(=O)CSc1nc2cc(S(=O)(=O)N(CC)CC)ccc2o1)C1CCS(=O)(=O)C1 (stereo not drawn) | -8.53
3 | Cc1cc(C)n2nc(C(=O)Nc3ccc4c(c3)OCO4)nc2n1 | -1.25
4 | c1ccc(-c2cc(-c3nnc4n3N=C(c3ccc5ccccc5c3)CS4)[nH]n2)cc1 | -5.45
5 | O=C(Cc1ccccc1)NN1CCCCC1 | 15.7
6 | O=C(OCCN=C1NS(=O)(=O)c2ccccc21)C1CC(=O)N(c2ccc3ccccc3c2)C1 (stereo not drawn) | -15.7
7 | S=c1[nH]nc(COc2ccc(Cl)cc2)n1-c1ccc(Cl)cc1 | 24.8
8 | CCOc1cc(/C=N/NC(=O)c2ccncc2)ccc1OC(=O)c1ccco1 | -27.5
9 | Oc1ccc(-c2[nH]ncc2-c2cnn(-c3ccccc3)c2)c(O)c1 | 2.79
10 | FC(F)(F)c1nnc2ccc(NCc3cccnc3)nn12 | 10.6
11 | CC1(C)N=C(N)N=C(N)N1c1ccccc1.Cl | 16.7
12 | CC(=O)c1sc(NC(=O)C2CCN(c3ncnc4sc(C)c(C)c34)CC2)nc1-c1ccccc1 | 13.7
13 | Cc1ccc(/C=C2\SC(=S)N(CCCC(=O)Nc3ccccc3C(=O)O)C2=O)cc1 | -6.61
14 | Cn1c(=O)[nH]c(=O)c2c1nc(CN1CCOCC1)n2CCCc1ccccc1 | -11.4
15 | CCOC(=O)N1CCC(NC(=O)C2CCCN(C(=O)c3cc4sccc4n3C)C2)CC1 (stereo not drawn) | -5.34
16 | COC(=O)C1=C(c2ccccc2)C[C@@H]2CC[C@H]1N2C(=O)N1CCOCC1 | -1.88
17 | CCOC(=O)c1sc(NC(=O)C2CC(=O)N(c3ccc4c(c3)OCCO4)C2)nc1C (stereo not drawn) | -23.8
18 | CC(=O)Nc1ccc(S(=O)(=O)NCc2cc(=O)n(C)c(=O)n2C)cc1 | 18.5
19 | Cc1cccc(NC(=O)c2ccc(NCC3CCCO3)c([N+](=O)[O-])c2)n1 (stereo not drawn) | 14.2
20 | CCOC(=O)Cc1n[nH]c(=O)c2ccccc12 | 3.11
21 | C=CCC(C(=O)c1ccccc1)[N+](C)(C)CC=C.[Br-] (stereo not drawn) | 24.1

Row | SMILES | hERG current change (%, negative = inhibition) at 10uM [%]
22 | O=C(NCC1CCCO1)C(c1ccc(F)cc1)N(CCCN1CCOCC1)C(=O)c1ccc(-c2ccccc2)[nH]1 (stereo not drawn) | -26.2
23 | CCOc1ccc(OCC)c(NC(=O)C2CCN(c3nn4c(=O)cc(C)nc4s3)CC2)c1 | -30.5
24 | COc1cccc(/C=N/Nc2nnc(C)n2N)c1O.Cl | 12.7
25 | CN1CCN(c2nc(-c3cccc([N+](=O)[O-])c3)nc3ccccc23)CC1 | -48.4
26 | Cc1ccc(NC(=O)CN2CCc3ccccc3C2)cc1 | -30.3
27 | Cc1nnc(NC(=O)c2cc(S(=O)(=O)N(C)C)ccc2N2CCCC2)s1 | -0.793
28 | CCOc1ccc(NC(=O)Nc2cc(C(C)C)c(O)cc2C)cc1 | 4.34
29 | COc1ccc(S(=O)(=O)Nc2ccc(S(=O)(=O)N3CCCCC3)cc2)cc1C | -9.27
30 | O=C(Nc1cnn(Cc2ccccc2)c1)c1nc2ncccn2n1 | 6.14
31 | CCc1c(C)nc(N2CCN(c3ccccc3F)CC2)[nH]c1=O | 13.7
32 | C/C(=N\NC(=O)c1cccc(S(=O)(=O)Nc2ccccc2Cl)c1)c1ccc(-n2ccnc2)cc1 | 6.22
33 | Cc1ccc(NC(=S)NC(=O)C2CCC2)cc1C | 4.43
34 | Cc1c(CCOC(=O)C23CC4CC(CC(C)(C4)C2)C3)sc[n+]1CC(=O)c1ccccc1.[Br-] | -26.7
35 | CCCCNC(=S)N1CCn2cccc2C1c1ccc(F)cc1 (stereo not drawn) | -9.58
36 | CC(=O)N1C(=O)N(C)C2C1N(C)C(=O)N2C(C)=O (stereo not drawn) | 12.4
37 | Cc1ccc(NS(=O)(=O)c2cc(C(=O)N3CCN(C)CC3)ccc2C)cc1C | -7.85
38 | CCCN1C2=NS(=O)(=O)CCN2c2ccccc21 | -9.83
39 | Cc1c(C)c(C)c(/C=[N+](/C)[O-])c(C)c1C | 24.1
40 | CCN=C1SC(C(=O)Nc2ccc(Cl)c(Cl)c2)CC(=O)N1CC (stereo not drawn) | 10.9
41 | COc1ccc(C)cc1S(=O)(=O)NC(C)C(=O)NC1CC1 (stereo not drawn) | 11.2
42 | COc1cc(NC(=O)c2ccc([N+](=O)[O-])o2)ccc1NC(=O)c1ccco1 | 4.6

Row | SMILES | hERG current change (%, negative = inhibition) at 10uM [%]
43 | CC(NC(=O)Nc1cccc([N+](=O)[O-])c1)c1ccc2c(c1)OCO2 (stereo not drawn) | 9.68
44 | COc1ccccc1CCN1CCCC(CN(C)C(=O)c2ccoc2)C1 (stereo not drawn) | -51.2
45 | O=C1[C@@H]2C(c3cccnc3)=NO[C@@H]2C(=O)N1c1ccc(Br)cc1 | 16.4
46 | CC(C)COc1ccc(C(=O)N(CC(=O)Nc2ccccc2C(F)(F)F)Cc2ccco2)cc1 | -13.3
47 | O=C(Nc1cc(Br)c(O)c(Br)c1)c1cccc(NC(=O)c2ccco2)c1 | -27
48 | CCOC(=O)c1c(NC(=O)C(C)Sc2cccc[n+]2[O-])sc2c1CCN(Cc1ccccc1)C2 (stereo not drawn) | -33
49 | CC(C)Oc1ccc(N2C(=O)c3ccccc3C2=O)cc1 | 11.3
50 | Cc1cc(SCC(=O)c2ccccc2)n2ncc(-c3ccccc3)c2n1 | -3.63
51 | Clc1ccc(C2CC(c3cccs3)n3ncnc3N2)cc1Cl (stereo not drawn) | -17.3
52 | COc1ccc(NC(C)=O)cc1S(=O)(=O)Nc1ccc(C(=O)N2CCCC2)cc1 | 6.59
53 | Cc1ccc(S(=O)(=O)N(Cc2ccccc2F)C(=O)N2CCN(C)CC2)cc1 | 14
54 | O=C(c1cc(-c2cccnc2)nc2ccc(Cl)cc12)N1CCN(S(=O)(=O)c2cccs2)CC1 | -4.28
55 | COC(=O)[C@]1(C)CCC[C@@]2(C)C3CC[C@@]4(C)C[C@]3(CCC21)CC(=O)N4C (stereo partly drawn) | 6.59
56 | O=C(O)CC1=C(Nc2ccccc2)C(=O)N(c2ccccc2)C1c1ccc(Cl)cc1 (stereo not drawn) | 11.3
57 | Cc1c(Cl)cccc1NC(=O)CCN1CCN(CCO)CC1.Cl | 20.6
58 | CCCCCC(C)NC(=S)NC(=O)c1cc(S(=O)(=O)N2CCOCC2)ccc1C (stereo not drawn) | -7.03
59 | COC(=O)c1ccccc1NC(=O)CC(=O)Nc1ccccc1C(=O)OC | 5.39
60 | COC(=O)c1ccc(CN2[C@H](C(=O)OC)C[C@@]3(O)[C@@H](O)[C@@H](O)[C@@H](O)C[C@@H]23)cc1 | 14
61 | Cc1nn(Cc2ccccc2Cl)c(Cl)c1C(=O)NCCc1ccccc1 | 17
62 | Cc1cc(C)nc(NS(=O)(=O)c2ccc(NC(=O)C3(c4ccc([N+](=O)[O-])cc4)CCCC3)cc2)n1 | 3.8
63 | CN1CCCCCC1=NC1=C(C#N)CCCC1 | -6.53

Row | SMILES | hERG current change (%, negative = inhibition) at 10uM [%]
64 | CC(Cn1cnc2ccccc21)C(=O)O (stereo not drawn) | 12.3
65 | O=C(Nc1cccc(C(=O)N2CCN(Cc3ccccc3)CC2)c1)c1ccccc1 | -16.7
66 | CCOC(=O)c1c(C)[nH]c(C)c1C(=O)COC(=O)c1ccc(O)cc1 | -1.29
67 | CCN(C(=O)CSc1nc2nc(C)cc(C)n2n1)c1ccccc1 | -8.31
68 | Cc1nn(C)c(C)c1NC(=O)c1ccccc1NC(=O)Nc1ccccc1 | 17.6
69 | CCC(C(=O)NC1CCCCC1)N(C(=O)c1snc(C(N)=O)c1N)c1ccc(OC)cc1OC (stereo not drawn) | -69.3
70 | CC(C)NC(=O)NC(=O)CSc1ncc(C(F)(F)F)cc1Cl | -3.58
71 | O=C(COC(=O)/C=C/c1ccc(Cl)cc1Cl)Nc1ccc2c(c1)OCCO2 | 18.5
72 | O=C(c1ccc(Cl)cc1)C1CCN(CC(=O)N2CCCCC2)CC1 | -36.8
73 | COc1cccc(NC(=O)CN2C(=O)NC3(CCCc4ccccc43)C2=O)c1 (stereo not drawn) | 3.75
74 | Cn1ncc([N+](=O)[O-])c1C(=O)NCc1ccccc1 | 12.1
75 | Cc1cc(C)cc(N(C(=O)c2csnn2)C(C(=O)NC2CCCCC2)c2ccncc2)c1 (stereo not drawn) | 3.83
76 | O=C(Cn1cnc2c(nnn2Cc2ccc(Cl)cc2)c1=O)NCC1CCCO1 (stereo not drawn) | -0.834
77 | Cc1ccc(CCNC(=O)C2CCN(S(=O)(=O)N3CCCC3)CC2)cc1 | -7.98
78 | COc1ccc(CCNC(=O)COc2ncnc3ccccc23)cc1 | 1.86
79 | COc1ccc(-c2cc3ccc(OC(C)C(=O)O)cc3oc2=O)cc1 (stereo not drawn) | 10.7
80 | Cc1cccc(NC(=O)C2CCN(C(=O)c3ccc(F)cc3)CC2)n1 | -0.274
81 | Cc1c(C)n(Cc2ccccc2)c2ccc(C(=O)OCCN(C)C)cc12.O=C(O)CCC(=O)O | -35.7
82 | COC(=O)[C@@H](Cc1c[nH]c2ccccc12)NC(=O)CNC(=O)c1ccccc1OC | 17.5
83 | COc1cc(/C=C/C(=O)Nc2cc(C(F)(F)F)ccc2Cl)cc(OC)c1OC | 7.9
84 | COc1ccc(CN2CCC(=O)N([C@H](CO)Cc3ccccc3)CC2)cc1OC | 0.538
